Out of some 48,000 compounds screened, about 450 (0.94%) were called active. Inconclusive results (about 19%) are left out. The call rests on the fitted dose curve; in most records, active means well fitted inhibition curve with a large enough effect; inconclusive means small, poorly fitted or top-dose-only effect; inactive means no such curve, though single readings can be large or run the other way. The list shows a part of the results.
experiment: Primary qHTS for Identification of Small Molecule Inhibitors of Huntingtin Promoter Activity; conditions: HEK293 HTT promoter firefly luciferase reporter (activity 0% = vehicle and -100% = no light), 24 h; series mostly up to 57.5 µM; activity change, negative = inhibition: at the top concentration; further: nearly all actives have a fitted effect of over 50% in size
Outline: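 HEK293 Fluc reporter, 2,500 cells/well, 24 h pre-culture; cpds up to 57.5 uM final, 24 h 37 degrees C; Dual-Glo, 10 min RT; normalized vehicle = 0%, zero RLU = -100%.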

Activity change, negative = inhibition, inactive:
Cc1ccc(CN(Cc2cccn2-c2nnc(N3CCCC3=O)s2)C(=O)Nc2ccccc2Cl)cc1 -23.4%
O=C(COc1ccccc1-c1nc(-c2ccccc2)no1)Nc1ccc([N+](=O)[O-])cc1 0.346%
Cc1nc2c(-c3ccc(F)cc3)c(C)nn2c(C)c1CCC(=O)NCc1ccc(F)cc1 -13%
CCOC(=O)c1c(C)[nH]c(CCC(=O)NCc2ccc(OC)cc2OC)c1C -23.9%
CC(C)CCNC(=O)c1cc(-c2cccnc2)nc2ccc(S(=O)(=O)N3CCC(C)CC3)cc12 -4.29%
O=C(CSc1nc2c([nH]c3ccccc32)c(=O)n1-c1ccccc1)N1CCCCC1 -3.26%
COc1ccc(NC(=O)c2nnn(-c3ccc(C(C)C)cc3)c2C)c(OC)c1 -10.8%
CCCCC1=NC2(CCCC2)C(=O)N1Cc1ccc(-c2ccccc2-c2nn[nH]n2)cc1 3.49%
COc1ccc(OC)c(-c2noc(N3CCN(c4cccc(C(F)(F)F)c4)CC3)n2)c1 -23.9%
CCOc1ccc(-c2cc(C(=O)NCCc3ccc(C)cc3)c3ccccc3n2)cc1 25.5%
Cc1cccc(-n2c3nc(=O)[nH]c(=O)c-3cc3ccc(Cl)cc32)c1C -13.7%
Cn1c(CN2CCOCC2)nc2cc(NC(=O)c3ccccc3[N+](=O)[O-])ccc21 -19.5%
COc1ccc(-c2coc3cc(O)cc(O)c3c2=O)cc1 17.5%
COc1cc(OC)c(NC(=O)c2ccc(-n3cnc4cccnc43)cc2)cc1Cl -24.9%
O=C(NCCCN1CCN(c2ccc(F)cc2)CC1)Nc1ccccc1Cl -16.2%
CN(C(=O)c1cc2c(Cl)nc3ccccc3c2s1)c1cccc(C(F)(F)F)c1 4.04%
O=C(Cn1nc(-c2ccccc2)c2c(c1=O)CCCC2)Nc1ccc(F)c(Cl)c1 -29.9%
Cc1ccc(NC(=O)c2oc3ccc(S(=O)(=O)N4CCCCCC4)cc3c2C)c(C)c1 -10.3%
CCn1c(=O)c2cc(C(=O)NC3CCC(C)CC3)sc2c2ccccc21 (stereo not given) -9.66%
COc1ccc(NC(=O)c2cc3c(=O)n(Cc4cccs4)ccc3nc2C)cc1 -21.2%
COc1ccc(OC)c(NC(=O)Cn2c(=O)n(-c3cccc(C)c3)c(=O)c3c2c2cc(C)ccc2n3C)c1 -9.62%
COc1ccc(-n2c(C)nnc2SCc2nc(-c3ccc(OC)c(OC)c3)no2)cc1 -23.2%
Cc1ccc(NC(=O)c2c(NC(=O)c3ccc(F)cc3)sc3c2CCCC3)cc1C 56.6%
CCOC(=O)c1cc(OC(=O)c2cc(OC)c(OC)c(OC)c2)n(-c2ccccc2)n1 -11.8%
CCOc1ccc(-n2c(SCC(=O)Nc3cc(C)on3)nc3c([nH]c4ccccc43)c2=O)cc1 -25.1%
CCc1ccccc1N(C)C(=O)Cn1cnc2sc(C)c(S(=O)(=O)N3CCC(C)CC3)c2c1=O -7.15%
COc1cccc(CNC(=O)CCCn2nc(C)c3sc4ccccc4c3c2=O)c1 6.99%
Cc1ccc(Nc2ccc3cc(S(=O)(=O)N4CCCCC4)ccc3n2)cc1F -16.1%
CCOC(=O)c1ccc(NC(=O)CSc2nc(-c3ccc(OC)cc3)cc(C(F)(F)F)c2C#N)cc1 -13.5%
CC(C)c1noc(N2CCC(COc3ccc(-c4ccc(S(C)(=O)=O)cc4)nc3)CC2)n1 -16%
CCn1cc2nc(SCC(=O)Nc3ccc(OC)c(Cl)c3)n(Cc3ccc(OC)cc3)c(=O)c2n1 -23%
COc1ccc(N(CC(=O)N2CCN(c3ccccc3)CC2)S(=O)(=O)c2c(C)nn(C)c2C)cc1 -9.07%
COc1ccc(-c2cc3nc(C)c(CCC(=O)NCc4ccccc4Cl)c(C)n3n2)c(OC)c1 -34.5%
CC(=O)c1ccc(NC(=O)c2cn(-c3ccccc3)nc2-c2ccc(Br)cc2)cc1 -7.35%
O=C(CCC1CCCC1)N1CCc2c([nH]c3ccccc23)C1c1ccc(F)cc1 (stereo not given) -28.6%
N#Cc1nc(COc2ccccc2Cl)oc1NCCc1ccccc1 3.03%
CCOc1ccc(NC(=O)NCCN2CCN(c3cccc(C)c3C)CC2)cc1 -29.2%
CCc1cccc(C)c1NC(=O)C1CCN(S(=O)(=O)c2c(C)noc2/C=C/c2c(C)cc(C)cc2C)CC1 -8.33%
Cc1ccc(CCNC(=O)CN(c2cc(C)cc(C)c2)S(=O)(=O)c2c(C)noc2C)cc1 -8.2%
COc1ccccc1Nc1nc(-c2ccc(F)cc2)c2c(n1)-c1ccccc1OC2 -14.5%
COc1cccc(-n2ccn(CC(=O)NCc3ccc(C)cc3)c(=O)c2=O)c1 -16%
CCOc1ccc(C2CC(=O)NC(NC(=O)c3cccc(Cl)c3)=N2)cc1 (stereo not given) -1.91%
Cc1ccc(CSC2=Nc3ccccc3C3=NC(CC(=O)NCc4cccs4)C(=O)N23)c(C)c1 (stereo not given) -4.34%
O=C(Nc1ccc2nc(SCCOc3ccccc3)sc2c1)c1ccccc1F 4.03%
CCOC(=O)c1c(C)c(-c2ccccc2)n(CC(=O)Nc2ccc(OCC)cc2)c1C -9.53%
COc1ccc(-c2cn3c(n2)sc2cc(C(=O)Nc4cccc(SC)c4)ccc23)cc1 -21%
Cc1ccc(-c2ccc(=O)n(CC(=O)NCCc3ccc(Cl)cc3)n2)cc1 -28.5%
COC(=O)C(CCSC)NC(=O)Cn1ncc2c([nH]c3ccccc32)c1=O (stereo not given) 4.81%
COc1cccc2c1cc1c(=O)n(CC(=O)N3CCN(c4cccc(Cl)c4)CC3)nc(C)n12 3.12%
O=C(OCc1cc(=O)n2nc(-c3cccs3)sc2n1)c1ccccc1 -2.52%
CC(=O)n1nc(-c2cccnc2)nc1NCc1ccc(F)cc1 -18.3%
O=C1c2oc3ccccc3c(=O)c2C(c2ccc(O)cc2)N1Cc1ccc2c(c1)OCO2 (stereo not given) 21.4%
O=C(c1ccc(Cl)cc1)N1CCC(c2nc3ccccc3o2)CC1 -27.9%
CCOc1ccc(NC(=O)c2c(NCc3ccc(C)o3)sc3c2CCCCC3)cc1 -9.51%
CCn1cc(C(=O)OCC(=O)Nc2cc(OC)cc(OC)c2)c(=O)c2ccc(C)nc21 -15.5%
Cc1ccc(CNC(=O)CN2C(=O)CSc3ccc(S(=O)(=O)N(C)C)cc32)cc1 -21.4%
Cc1cc(OCC(=O)Nc2c(C(=O)c3ccccc3)oc3ccccc23)cc(C)c1Cl 8.39%
CCOC(=O)C1CCCN(c2c(C(=O)c3ccc(OCC)cc3)cnc3ccccc23)C1 (stereo not given) -35.7%
CC(C)CN(CCCNC(=O)c1cc(-c2cccs2)nc2ccccc12)CC(C)C -14.7%
Cc1nn(C)c2c1c(-c1ccccc1)cc(=O)n2Cc1ccccc1C#N -34%
